# Experimental data as given in PubChem BioAssay AID1508623 (National Center for Advancing Translational Sciences (NCATS), 2021).
# The whole screen tested about 48,000 compounds, of which about 450 (0.94%) were called active. Inconclusive results (about 19%) are left out. Calls follow the shape of the dose curve; as a rule, active = well fitted inhibition curve with a large enough effect; inconclusive = small, poorly fitted or top-dose-only effect; inactive = no such curve, though single readings can be large or run the other way. The list shows a part of the results.
# Experiment: Primary qHTS for Identification of Small Molecule Inhibitors of Huntingtin Promoter Activity; also: nearly all actives have a fitted effect of over 50% in size
# Conditions: HEK293 HTT promoter firefly luciferase reporter (activity 0% = vehicle and -100% = no light), 24 h; series mostly up to 57.5 µM; activity change, negative = inhibition: at the top concentration
# Outline: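 Firefly luciferase signal from promoter-reporter HEK293 cells was scaled between vehicle (0%) and zero RLU (-100%). Compounds were tested at final concentrations of up to 57.5 uM over 24 h at 37 degrees C. PTC124 at 50 uM final served as control inhibitor.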
# Potency is read from the fitted curve at half-maximal effect.
SMILES,"activity change, negative = inhibition",Potency
Cc1ccc(Cl)cc1N1CCN(C(=O)CCS(=O)(=O)c2cc(Br)cc3c2N(C(=O)C2CC2)CC3)CC1,inactive: -23.8%,
O=C(Nc1ccc(C(=O)OCc2cc(=O)n3nc(C4CC4)sc3n2)cc1)c1ccccc1,inactive: -12.2%,
Cc1ccc2c(c1)N(C(=O)N1CCC(C(=O)NC3CCCCCC3)CC1)CC(C)O2 (stereo unspecified),inactive: 33.2%,
COc1cc(NC(=O)Cc2c(C(=O)O)c(C)cn2C)cc(OC)c1,inactive: -15.6%,
COc1ccc(/C=C/C(=O)Nc2sc3c(c2C(N)=O)CCC(C)C3)cc1OC (stereo unspecified),inactive: -0.342%,
CCOC(=O)c1c(NC(=O)c2cc(C)on2)sc(C)c1C,inactive: -0.98%,
Cc1ccc(-n2ncc3c(N4CCN(C)CC4)ncnc32)cc1Cl,inactive: -22.7%,
CCOc1ccc(NC(=O)CCS(=O)(=O)c2cccc3nonc23)cc1,inactive: -4.91%,
CNC(=O)c1c[nH]c2ccc(S(=O)(=O)Nc3cccc(Cl)c3C)cc2c1=O,inactive: -20.8%,
Cc1cc(C)cc(OCc2ccc(C(=O)Nc3ccccc3F)o2)c1,inactive: -3.73%,
COc1ccc(CNC(=O)CCC(=O)N2CC3CCCN3c3ccccc32)c(OC)c1 (stereo unspecified),inactive: -16.6%,
Cc1cc(C)c2c(=O)cc(C(=O)Nc3sc4c(c3C(=O)NCc3cccnc3)CCCC4)oc2c1,inactive: 21.1%,
CCC(Sc1nc2nccnc2c(=O)n1Cc1ccc(OC)cc1)C(=O)NC1CCCCC1 (stereo unspecified),inactive: -8.19%,
CC(C)n1c(SCC(=O)Nc2ccc(F)cc2)nc2c(oc3ccccc32)c1=O,inactive: 1.55%,
CCOc1ccccc1CNC(=O)c1ccc2c(c1)sc1nc(-c3cccc(OC)c3)cn12,inactive: -7.61%,
CC(C)C12CN3CC(C(C)C)(CN(C1)C3c1ccc(OCc3ccccc3)cc1)C2=O (stereo unspecified),inactive: -3.38%,
CC(=O)c1cccc(NC(=O)c2ccc(-n3c(C)nnc3C)cc2)c1,inactive: -14.9% [at 11.5 µM],
CCOc1ccc(-n2c(SCC(=O)Nc3ccc(F)cc3)nc3c([nH]c4ccccc43)c2=O)cc1,inactive: -13.7%,
CC(C)(C)OC(=O)N1CCC(c2nnc(SCc3ccccc3)o2)CC1,inactive: -34.2%,
Cc1cc(NC(=O)COc2ccccc2)cc(-c2nc3ccccc3o2)c1O,inactive: -21.7%,
COc1ccccc1CNC(=O)c1ccc(N2Cc3cccc(OC)c3Oc3ncccc32)s1,inactive: -1.3%,
COc1ccc(-c2noc(-c3ccc(N4CCCCC4C)c([N+](=O)[O-])c3)n2)cc1OC (stereo unspecified),inactive: -5.21%,
CCCn1c(-c2cccc(Br)c2)nc2ccccc21,inactive: 10.7%,
CCCN1C(=O)C(Cc2nc3ccccc3c(=O)n2-c2cccc(C)c2)c2ccccc21 (stereo unspecified),inactive: -18.4%,

SMILES,"activity change, negative = inhibition",Potency
Cn1ncc(C(=O)N2CCN(c3ccc(F)cc3)CC2)c1C1CCN(C(=O)OC(C)(C)C)CC1,inactive: -9.12%,
Cc1ccc(C2=CC(c3c(F)cccc3Cl)n3ncnc3N2)cc1C (stereo unspecified),inactive: -15.4% [at 11.5 µM],
Cc1cc(C)cc(NC(=O)C2CCCN2S(=O)(=O)c2cccc3nsnc23)c1 (stereo unspecified),inactive: -27.7%,
O=C(CSc1nnc2[nH]c(=O)cc(-c3ccccc3)n12)Nc1ccc(F)cc1F,inactive: 34.5%,
Cc1ccc(C(=O)n2nc(C)c(S(=O)(=O)N3CCCCCC3)c2C)cc1,inactive: -6.18%,
COc1cccc(C2C(C(=O)Nc3ccccc3)=C(C)Nc3nc(-c4ccccc4)nn32)c1OC (stereo unspecified),inactive: -11.9%,
Cc1cccc(-c2noc(-c3ccc(N4CCN(C)CC4)c([N+](=O)[O-])c3)n2)c1,,active: 1410 nM
COc1ccc(CNc2nc3c(c(=O)n(C)c(=O)n3C)n2Cc2ccccc2Cl)cc1,inactive: -13.4%,
Cc1ccc(Cn2c(C)c(CNCCCc3ccccc3)c(C(=O)O)c2C)cc1,inactive: -15.3%,
CC1CCN(S(=O)(=O)c2ccc3c(c2)CCC(=O)N3CC(=O)Nc2cccc(C#N)c2)CC1,inactive: -19.7%,
CCCCNC(=O)CSc1nnc(C)c2c(C)n(-c3ccccc3)nc12,inactive: -15.3%,
Cc1ccc(-c2noc(CNC(=O)c3ccccc3)n2)cc1,inactive: -10.6%,
Cc1ccc(-c2cc3c(n2-c2ccc(C)cc2)CC(C)(C)CC3=O)cc1,inactive: -3.03%,
Cc1ccc(C2=NN(CC(=O)NCCN(CC(C)C)CC(C)C)C(=O)CC2)cc1,inactive: -8.26%,
CC(C)NC(=O)C1CCN(c2nc3ccccc3nc2C(F)(F)F)CC1,inactive: -16%,
CCCCCCCCCCCC[N+](C)(C)Cc1ccccc1,inactive: 4.37%,
O=C(NCCOCCn1c(=O)oc2ccccc21)Nc1ccc(F)cc1,inactive: -13.9%,
Cc1nc(N2CCCC2)ncc1C(=O)Nc1ccc(F)cc1F,inactive: 11.7%,
COc1ccccc1OCC(=O)Nc1nc(-c2ccc(Br)cc2)ns1,inactive: 7.43%,
CC(C)N(Cc1ccccc1)C(=O)CCS(=O)(=O)c1ccc2c(c1)oc(=O)n2C,inactive: -24.7% [at 11.5 µM],
Cc1cc2c(cc1S(=O)(=O)N(CCN(C)C)Cc1ccco1)OCC(=O)N2,inactive: 7.38%,
Cc1ccc(CN2CCc3nc(N4CCN(C)CC4)ncc3C2)s1,inactive: -10.2%,
Cc1c(Cl)cccc1NC(=O)Cn1cnc2nc3c(cc2c1=O)CCCC3,inactive: -0.625%,
CC(=O)O[C@@H]1CC2C3CCc4cc(OC(=O)c5ccccc5)ccc4C3CCC2(C)[C@H]1OC(C)=O (stereo partly specified),inactive: -4.45%,

SMILES,"activity change, negative = inhibition",Potency
CC(C)(C)CC(=O)NC1CC(=O)N(c2ccc3c(c2)OCCO3)C1 (stereo unspecified),inactive: -22.4%,
O=C(c1ccc2c(c1)N(Cc1ccccc1F)C(=O)c1ccccc1S2=O)N1CCOCC1 (stereo unspecified),inactive: -22.3%,
Cc1ccc2c(c1)cc1c(=O)n(CC(=O)N3CCCCC3)nc(C)n12,inactive: -6.4%,
Cc1cccc(N(C)C(=O)CSc2nc3ncccc3o2)c1,inactive: -2.9%,
CCCCCN=C(N)NN=Cc1c[nH]c2ccc(OC)cc12,inactive: -31.2%,
COc1ccc2c(c1)c1c(c(=O)n(-c3ccccc3)c(=O)n1CC(=O)Nc1ccc(C)c(C)c1)n2C,inactive: -19.2%,
CN(Cc1ccccc1)S(=O)(=O)c1nnc(NC(=O)c2ccccc2)s1,inactive: 1.58%,
O=c1c(O)c(-c2ccc(O)cc2O)oc2cc(O)cc(O)c12,inactive: 0.812%,
Cc1cccc(N(C)C(=O)CCNS(=O)(=O)c2ccc3c(c2)CCN3C(=O)C2CC2)c1,inactive: -16.9%,
Cc1ccc(C)c(CS(=O)(=O)c2cn(CC(=O)N(C(C)C)C(C)C)c3ccccc23)c1,inactive: -27%,
COC(=O)CCn1cnc2onc(-c3cc(F)cc(F)c3)c2c1=O,inactive: -18.6%,
Fc1ccc2ncc3c(-c4ccccc4)n[nH]c3c2c1,inactive: -25.7%,
Cn1ncc2c(Nc3cccc(F)c3)ncnc21,inactive: -25.5%,
O=C(Nc1c(C(=O)Nc2ccccc2F)oc2ccccc12)c1cc2ccccc2o1,inactive: -9.71%,
COc1ccc(C2CNC(=O)C2)cc1OC1CCCC1 (stereo unspecified),inactive,
COc1cc(C(CC(=O)NCCC(C)C)N2Cc3ccccc3C2=O)cc(OC)c1OC (stereo unspecified),inactive: -21.6%,
COc1cc(NC(=O)CN2CCN(CC(=O)Nc3ccc(F)cc3)CC2)cc(OC)c1,inactive: -4.13%,
COc1cc(NC(=O)Cn2c(=O)n(Cc3ccco3)c(=O)c3oc4ccccc4c32)cc(OC)c1,inactive: -7.57%,
Cc1ccc(-c2nc(Cn3c(=O)cc(-c4ccccc4)c4c(C)nn(C)c43)c(C)o2)cc1,inactive: 0.36%,
O=C(CSc1nnc(-c2ccc([N+](=O)[O-])cc2)o1)Nc1ccccc1,inactive: 66.7%,
CN(C1CCCCC1)S(=O)(=O)c1ccc2c(c1)c(=O)c(C(=O)N1CCN(c3ccccc3F)CC1)cn2C,inactive: 3.14%,
CCOc1ccc(NC(=O)c2cc(=O)c3ccc(C)c(C)c3o2)cc1,inactive: -10.6% [at 11.5 µM],
Cn1cnc(S(=O)(=O)N2CCC(C(=O)N3CCN(c4ccccc4F)CC3)CC2)c1,inactive: -8.88%,
CSc1cccc(NS(=O)(=O)c2cn(C)c(C)n2)c1,inactive: -3.69%,

SMILES,"activity change, negative = inhibition",Potency
CCOc1ccc2c(c1)NC(c1cccs1)=NC(c1ccc(F)cc1)=N2,inactive: -2.57%,
CCN(c1ccccc1)c1nnc(NC(=O)Nc2ccc(Br)cc2F)s1,inactive: 5.89%,
O=C(Nc1ccc(Br)cc1F)N1CCC2(CC1)Oc1ccccc1C(=O)N2Cc1ccccc1F,inactive: 38.1%,
COc1ccc(C2C(C(=O)Nc3ccc(C)cc3C)=C(C)Nc3nc4ccccc4n32)c(OC)c1 (stereo unspecified),inactive: -18.7%,
COc1ccc2occ(CC(=O)Nc3ccc(S(=O)(=O)Nc4nc(C)cc(C)n4)cc3)c2c1,inactive: -11.2%,
O=C1CSC2(C(=O)N(Cc3ccccc3)c3ccccc32)N1c1ccc(Cl)cc1 (stereo unspecified),inactive: -5.3%,
CCC(C)NC(=O)C1=CC(c2ccc3c(c2)OCO3)=NS(=O)(=O)N1C (stereo unspecified),inactive: -13.8%,
CC(C)(C)c1ccc(C(=O)N2CCCCC2CCN2CCCCC2)cc1 (stereo unspecified),inactive: -11%,
O=C(CN1C(=O)COc2ccc(S(=O)(=O)Nc3ccccc3)cc21)Nc1cccc(Cl)c1,inactive: -21.6%,
COc1cccc2c1Oc1ncccc1N(C(=O)CCC(=O)NCc1ccccc1Cl)C2,inactive: -10.5%,
COC(=O)c1ccc(Cn2nnc3c(=O)[nH]c(C4CCCN(S(=O)(=O)c5cccc(Cl)c5)C4)nc32)cc1 (stereo unspecified),inactive: -25.5%,
Cc1ccccc1CSc1ncc(CO)n1Cc1ccc(F)cc1,inactive: -7.83%,
CCOc1ccc(-c2cc(-c3nc(-c4ccc(OC)c(OC)c4)no3)[nH]n2)cc1,inactive: -11.5%,
COc1ccc(Cc2nc3ccccc3n2Cc2ccccc2F)cc1,inactive: -9.95%,
CC(=O)c1ccc(NC(=O)CC(c2cccs2)N2Cc3ccccc3C2=O)cc1 (stereo unspecified),inactive: 14.9%,
CCN(C(=O)Cn1cnc2sc(C)c(S(=O)(=O)N3CCN(c4ncccn4)CC3)c2c1=O)c1ccccc1F,inactive: -14.1%,
Cc1cc(Cl)ccc1OCC(=O)N(Cc1ccco1)Cc1ccco1,inactive: -5.46%,
COc1ccc(-c2cn3cccnc3n2)cc1NC(=O)c1cc(C)cc(C)c1,inactive: 4.29%,
Cc1ccc(-n2ncc(C(=O)N3CCN(c4ccc(Cl)cc4)CC3)c2C2CCN(C(=O)OC(C)(C)C)CC2)c(C)c1,inactive: -10.9%,
CC(O)CNc1nc2c(c(=O)n(Cc3ccc(Cl)cc3)c(=O)n2C)n1C (stereo unspecified),inactive: -26.9%,
Cc1cc2c(cc1S(=O)(=O)CCC(=O)NCCc1ccccc1)OCC(=O)N2,inactive: -1.05%,
CCC1CN(C(=O)Nc2ccc(C)c(F)c2)c2ccccc2S1 (stereo unspecified),inactive: 34.8%,
CCOc1ccc(-c2nnc(SCC(=O)NCc3ccccc3)o2)cc1,inactive: -28.4%,
CC(C)(C)C(=O)NC1(C(F)(F)F)C(=O)Nc2c1c(=O)[nH]c(=O)n2-c1ccccc1 (stereo unspecified),inactive: -13.6%,
